Test results reported in the supplement of paper PMC10338343.
± gives the standard deviation. This is a selection; strong and weak results do not stand in their true shares.

test system: MIWI (PIWIL1) piRISC loaded with L1MC piRNA (30 nt); assay: pre-steady-state target cleavage rate (min^-1); MIWI and MILI are mouse PIWI proteins and EfPiwi is from a freshwater sponge; tags in brackets are library labels; higher = faster piRNA-guided slicing of the target; settings: guide: L1MC piRNA 5'p-UAACUAAAUACUAUGCAAGCUGUAGGUCCU; auxiliary factor: 500 nM mouse GTSF1
Method in brief: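 Cleave-'n-Seq used a transcribed, DNA-blocked target RNA library at 0.1 nM and active affinity-purified piRISC with one synthetic guide at 1 nM, with or without 500 nM GTSF1 partner protein, in HEPES–potassium acetate buffer at 33 °C for 0–8 or 0–960 min. Uncleaved targets were sequenced and normalised to depth and to weakly complementary targets, and three trials were pooled with k3 capped at 0.0001 min^-1. The pre-steady-state cleavage rate was estimated by a burst-and-steady-state fit.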

Which “pre-steady-state target cleavage rate” value does the source give for UCCUGCUAGAGCUUGCAUAGUAUUUACAAA here?
The value was 0.186 ± 0.047.

With UGGACCUACAGCUUGGAUAGUAUUUUCAAA as the sequence, how does the “pre-steady-state target cleavage rate” value read?
The value was 0.0103 ± 0.0033.

With UCCUGGAACAGCUUGCAUAGUAUUAUGAAA as the sequence, how does the “pre-steady-state target cleavage rate” value read?
The value was 0.257 ± 0.051.

UCCUGCUACAGCAAGCAUAGUAUUUACAAA was tested. Which “pre-steady-state target cleavage rate” value did it give?
The value was 0.231 ± 0.057.

For UGGACCUACAGCUUGCAAUGUAUUUAGAAA, which “pre-steady-state target cleavage rate” value is on record?
Its value is 0.0549 ± 0.0084.

How did the “pre-steady-state target cleavage rate” value turn out when UGGACCUACAGCUUGCAUUCAAUUUAGUUA was run?
The value was 0.0044 ± 0.0032.

UCCUGGAUGUCCUUAGCAUAGUAUUUAGUUA was tested. Which “pre-steady-state target cleavage rate” value did it give?
The value was 0.0262 ± 0.009.

AGGACCUACAGCUUGCAUACAAUUUAGUAA was tested. Which “pre-steady-state target cleavage rate” value did it give?
Its value is 0.185 ± 0.069.

UCGACCUACAGCAUGCAUAGUAUUUACAAA was tested. Which “pre-steady-state target cleavage rate” value did it give?
The value was 0.527 ± 0.067.

How did the “pre-steady-state target cleavage rate” value turn out when UCCUGGAACAGCUACCAUAGUAUUUAGUAA was run?
Its value is 0.0979 ± 0.017.

UCCACCUAGAGCUUGCAUAGUAUUUUCAAA was tested. Which “pre-steady-state target cleavage rate” value did it give?
The value was 0.228 ± 0.04.

Which “pre-steady-state target cleavage rate” value does the source give for UCCUGCUAGUGCUUGCAUAGUAUUUACAAA here?
Its value is 0.0777 ± 0.02.

For UCCUGGUACAGCUUGCAUUGUAUUUAGAAA, which “pre-steady-state target cleavage rate” value is on record?
Its value is 0.0478 ± 0.013.

Which “pre-steady-state target cleavage rate” value does the source give for UGGACCUACAGCUUGCAUAGUAAAUAGAAA here?
The value was 0.16 ± 0.04.

With UCCUCCUACAGCUUGCAUUAGUAUUUAGUUA as the sequence, how does the “pre-steady-state target cleavage rate” value read?
The value was 0.0284 ± 0.013.

How did the “pre-steady-state target cleavage rate” value turn out when UCCUGGAUCACCUUGCAUAGUAUUUAGAAA was run?
Its value is 0.152 ± 0.043.

With UCCUGGAUGACCUUGCAUAGUAUUUAGAUA as the sequence, how does the “pre-steady-state target cleavage rate” value read?
Its value is 0.0694 ± 0.018.

For AGGACCUACACGAUGCAUAGUAUUUACAAA, which “pre-steady-state target cleavage rate” value is on record?
Its value is 0.19 ± 0.025.

UCCUGGUACAGCUUGCAUAGUAAAAAGAAA was tested. Which “pre-steady-state target cleavage rate” value did it give?
The value was 0.0607 ± 0.021.

How did the “pre-steady-state target cleavage rate” value turn out when UCCUCCUACAGGUUGCAUAGUAUUUACAAA was run?
The value was 0.201 ± 0.034.

Which “pre-steady-state target cleavage rate” value does the source give for UCCUGGAUGAGCUUGCAUAGUAUUUAUUA here?
The value was 0.0943 ± 0.023.

For UCCUCCUACAGCUUGCAUAGUAUUAACAAA, which “pre-steady-state target cleavage rate” value is on record?
Its value is 0.396 ± 0.056.

UCCUGGAUGUCCUUGCAAAGUAUUUACUUA was tested. Which “pre-steady-state target cleavage rate” value did it give?
Its value is 0.0186 ± 0.0064.

UCCUCCUACAGGAUGCAUAGUAUUUAGAAA was tested. Which “pre-steady-state target cleavage rate” value did it give?
Its value is 0.248 ± 0.036.
